Reference: PubChem BioAssay AID1347165 (National Center for Advancing Translational Sciences (NCATS), 2019)
The campaign covered roughly 220,000 compounds. About 5,700 (2.6%) were called active. Inconclusive means that the source gave no clear call. Such entries were picked first, then a sample of the others. Calls come from the whole dose curve; as a rule, active = well fitted inhibition curve with a large enough effect; inconclusive = small, poorly fitted or top-dose-only effect; inactive = no such curve, though single readings can be large or run the other way. Where the call is inconclusive, the potency comes from a doubtful curve fit.

The molecules below were run against Lysine-specific demethylase 5B (Homo sapiens) (UniProt Q9UGL1) (assay: Primary screen for KDM5B Histone Demethylases FDH-coupled qHTS). Conditions: FDH-coupled NADH fluorescence (FDH is formaldehyde dehydrogenase); series mostly up to 57.7 µM.
Summary of the method: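 qHTS format, multiple compound concentrations. Buffer 50 mM HEPES pH 7.5/0.01% Tween-20; 200 nM KDM5BΔAP final; 10 min compound preincubation; substrate-mix levels 12.5 µM peptide, 25 µM α-KG, 0.25 mM NAD⁺; 30 min RT; ΔRFU.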
Note: nearly all actives have a fitted effect of over 70% in size.
Potency is the fitted concentration of half-maximal effect; tags give direction and shape of the fitted curve.

Sequence of UniProt Q9UGL1 (Q9UGL1 whole entry, looked up): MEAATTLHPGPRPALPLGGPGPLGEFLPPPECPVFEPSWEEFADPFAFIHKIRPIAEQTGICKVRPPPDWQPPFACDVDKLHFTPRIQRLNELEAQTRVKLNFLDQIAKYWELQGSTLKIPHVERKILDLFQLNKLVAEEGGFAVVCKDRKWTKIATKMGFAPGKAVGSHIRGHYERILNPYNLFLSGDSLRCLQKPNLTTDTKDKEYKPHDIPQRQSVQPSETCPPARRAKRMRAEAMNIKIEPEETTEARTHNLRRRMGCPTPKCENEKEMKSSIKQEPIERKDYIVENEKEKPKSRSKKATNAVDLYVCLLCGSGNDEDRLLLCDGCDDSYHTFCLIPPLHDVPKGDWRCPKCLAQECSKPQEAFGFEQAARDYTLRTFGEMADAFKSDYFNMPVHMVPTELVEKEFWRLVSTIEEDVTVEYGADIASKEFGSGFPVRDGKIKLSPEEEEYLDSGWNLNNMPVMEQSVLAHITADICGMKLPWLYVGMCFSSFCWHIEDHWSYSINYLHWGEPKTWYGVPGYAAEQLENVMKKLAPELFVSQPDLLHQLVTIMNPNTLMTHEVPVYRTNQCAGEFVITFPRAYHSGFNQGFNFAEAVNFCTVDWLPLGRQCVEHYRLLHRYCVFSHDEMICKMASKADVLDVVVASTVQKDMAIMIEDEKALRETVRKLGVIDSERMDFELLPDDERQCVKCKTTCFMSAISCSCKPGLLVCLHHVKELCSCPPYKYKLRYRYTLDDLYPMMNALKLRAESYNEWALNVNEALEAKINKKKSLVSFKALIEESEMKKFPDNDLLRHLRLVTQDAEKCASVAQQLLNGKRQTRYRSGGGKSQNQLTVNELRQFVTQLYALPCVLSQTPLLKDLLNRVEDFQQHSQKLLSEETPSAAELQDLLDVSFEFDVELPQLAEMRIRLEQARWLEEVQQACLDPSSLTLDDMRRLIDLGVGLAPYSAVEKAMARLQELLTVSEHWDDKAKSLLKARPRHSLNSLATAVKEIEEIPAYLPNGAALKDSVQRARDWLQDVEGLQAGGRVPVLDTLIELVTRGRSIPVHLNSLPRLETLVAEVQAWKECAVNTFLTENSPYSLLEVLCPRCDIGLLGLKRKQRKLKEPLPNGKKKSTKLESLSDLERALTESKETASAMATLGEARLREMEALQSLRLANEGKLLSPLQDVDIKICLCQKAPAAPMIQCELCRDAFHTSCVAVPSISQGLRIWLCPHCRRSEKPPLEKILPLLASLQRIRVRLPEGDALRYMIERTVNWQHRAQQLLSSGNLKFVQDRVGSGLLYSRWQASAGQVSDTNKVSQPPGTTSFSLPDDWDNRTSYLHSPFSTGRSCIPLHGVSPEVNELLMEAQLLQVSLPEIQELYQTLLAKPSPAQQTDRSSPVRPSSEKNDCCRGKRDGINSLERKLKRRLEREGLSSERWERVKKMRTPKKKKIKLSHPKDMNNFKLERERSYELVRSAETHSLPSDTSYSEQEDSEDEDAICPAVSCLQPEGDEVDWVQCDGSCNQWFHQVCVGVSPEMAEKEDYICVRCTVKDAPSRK

| Structure (SMILES) | Potency |
| --- | --- |
| O=C(NCCc1ccccc1)c1nnc(Cc2cccc(F)c2)o1 | inconclusive: 0.891 µM [inhibitor, partial curve, poor fit] |
| COc1ccc(-c2nc(C)c(CCNS(=O)(=O)c3cc(C)c(C)cc3C)s2)cc1 | inconclusive: 15.8 µM [inhibitor, partial curve, poor fit] |
| COc1ccccc1-c1onc(C)c1C(=O)NCc1ccc(Cl)cc1 | inconclusive: 20 µM [inhibitor, partial curve, poor fit] |
| CCOC(=O)c1c(C)noc1-c1ccc(Br)o1 | inconclusive: 25.1 µM [inhibitor, partial curve, poor fit] |
| COc1ccc(NC(=O)c2ccc3c(c2)OCCN(CCC(F)(F)F)C3)cc1F | inconclusive: 35.5 µM [inhibitor, partial curve, poor fit] |
| Nc1nonc1C(=O)N1CCCN(C(=O)Nc2ccc(Cl)cc2)CC1 | inactive |
| Cc1ccc(C(=O)NC(=S)N2CCCC2)cc1 | inconclusive: 39.8 µM [inhibitor, single point] |
| Cc1ccc2nc(NC(=O)C3CC(=O)N(c4n[nH]c5ccccc45)C3)sc2c1 (configuration not stated) | inconclusive: 28.2 µM [inhibitor, single point] |
| CCOC(=O)c1ccccc1NC(=O)N(C(C)C)C1CCN(C(C)=O)CC1 | inconclusive: 25.1 µM [inhibitor, partial curve, poor fit] |
| COc1cccc(CN2Cc3nc(-c4cc(Cl)ccc4OC)ccc3OCC2=O)c1 | active: 35.5 µM |
| CCCn1c(=O)n(CC(=O)Nc2ccc(N3CCOCC3)cc2)c(=O)c2c1nc(C)n2CCOC | inactive |
| Cc1nn2c(c1-c1ccccc1Oc1ccccc1)N(Cc1cccc(C#N)c1)CCC2 | active: 25.1 µM |
| O=C(O)CCCC(=O)Nc1ccc(C(=O)N2CCCCCC2)cc1 | inactive |
| Cn1nnc2c(N3CCN(c4ccccc4Cl)CC3)ncnc21 | inconclusive: 39.8 µM [inhibitor, single point] |
| CCOC(=O)c1scc(-c2ccccc2)c1S(=O)(=O)Nc1cc(C)cc(C)c1 | inactive |
| CCC1=C(C(=O)OC)C(c2ccccc2OC)N2C(CC(=O)N3CCCC3)=CSC2=N1 (configuration not stated) | inconclusive: 31.6 µM [inhibitor, partial curve, poor fit] |
| COCc1c(C(=O)NCC(c2ccco2)N2CCCC2)sc2cccc(F)c12 (configuration not stated) | inactive |
| COc1ccc(-c2c3c(=O)n(C)c(=O)n(C)c3c3c(C)nc4ccccc4n23)cc1 | inconclusive: 31.6 µM [inhibitor, partial curve, poor fit] |
| Cc1ccc(NC(=O)c2cc3c(s2)CCC3)cc1C | inconclusive: 31.6 µM [inhibitor, single point] |
| COCCNC(=O)c1ccc2c(c1)N(C)C(CC(=O)NCc1ccncc1)CO2 (configuration not stated) | inconclusive: 28.2 µM [inhibitor, partial curve, poor fit] |
| CCOc1ccc(CNC(=O)C2CCCN(S(=O)(=O)c3ccc4c(ccn4C)c3)C2)cc1 (configuration not stated) | inconclusive: 22.4 µM [inhibitor, single point] |
| O=c1[nH]cccc1-c1nccc(C2(c3ccccc3Cl)CCNCC2)n1 | inconclusive: 17.8 µM [inhibitor, single point] |
| O=C(O)c1cc(-c2ccccc2)nc2ccc(F)cc12 | inconclusive: 39.8 µM [inhibitor, single point] |

| Structure (SMILES) | Potency |
| --- | --- |
| CCN(CC)C(=O)N1CCCCCCNC(=O)[C@@H]2CCC[C@@H]21 | inactive |
| O=C(O)C[C@@H]1CCN(C(=O)c2cccs2)C[C@@H]1CCN1CCN(c2ccccn2)CC1 | inactive |
| COCCC1=NN(C(=O)c2ccncc2)C(O)(C(F)(F)F)C1 (configuration not stated) | inconclusive: 25.1 µM [inhibitor, single point] |
| O=C(c1ccc(Cl)c(S(=O)(=O)NC2CC2)c1)N1CCN(c2ccc(F)cc2)CC1 | inactive |
| O=C(COc1ncnc2ccccc12)Nc1ccc(Cl)c(Cl)c1 | inactive |
| CC(=O)N1CCCN(c2ccc(-c3nc(-c4ccccc4F)no3)cn2)CC1 | inconclusive: 35.5 µM [inhibitor, partial curve, poor fit] |
| COc1cccc(N2CCN(C(=O)CCc3c(C)nc4c(c3C)c(=O)n(C)c(=O)n4C)CC2)c1 | inconclusive: 35.5 µM [inhibitor, single point] |
| CC1Oc2ccc(NC(=O)c3ccccc3)cc2CN(Cc2ccc(Cl)cc2)C1=O (configuration not stated) | inconclusive: 39.8 µM [inhibitor, partial curve, poor fit] |
| CCC(C)c1ccc2oc(-c3ccc(N)cc3)nc2c1 (configuration not stated) | inconclusive: 28.2 µM [inhibitor, partial curve, poor fit] |
| CC(=O)NC(Cc1c[nH]c2ccccc12)C(=O)N1CCN(S(=O)(=O)c2ccccc2F)CC1 (configuration not stated) | inactive |
| CCOC(=O)C1CCN(C(=O)c2cc3cc(OCC)ccc3n2C)CC1 | inactive |
| COc1ccc(C2C(C#N)=C(SCC(=O)Nc3cccc(F)c3)NC3=C2C(=O)CC(C)(C)C3)cc1 (configuration not stated) | inconclusive: 20 µM [inhibitor, partial curve, poor fit] |
| CC(C)(C)C(=O)NC(c1ccc(Cl)cc1)c1cccnc1 (configuration not stated) | inactive |
| Cc1ccc2c(c1)N(C(=O)Cn1c(=O)n(CCC(C)C)c(=O)c3sccc31)CCO2 | inconclusive: 39.8 µM [inhibitor, single point] |
| COc1cccc(NC(=O)c2ccc3c(c2)N(C)C2CCCCCN2C3=O)c1 (configuration not stated) | inconclusive: 20 µM [inhibitor, partial curve, poor fit] |
| N#CC(Cc1cccnc1)C(=O)Nc1ccc(Cl)c(Cl)c1 (configuration not stated) | inconclusive: 22.4 µM [inhibitor, single point] |
| COc1ccc(CNC(=O)CSc2nc(-c3ccc(OC)cc3)cc(C(F)(F)F)n2)cc1 | inconclusive: 1.26 µM [inhibitor, full curve, poor fit] |
| CN1CC(=O)N(C2CCNCC2)Cc2c(NCCOc3ccccc3)ncnc21 | inconclusive: 56.2 µM [inhibitor, partial curve, poor fit] |
| Cc1ccc(NC(=O)c2cc(-c3ccc[nH]3)n[nH]2)cc1C | inactive |
| Cn1cc(-c2ccccc2)cc1C(=O)N1CCOCC1 | inactive |
| Cc1ccc(-n2cnnc2SCC(=O)Nc2nc3c(C)cccc3s2)cc1 | inactive |
| COc1ccc(C(=O)N[C@@H]2CN(S(C)(=O)=O)C[C@H]2CN(C)C)c(C)c1 | inactive |
| O=C(CCC[C@H]1NC[C@@H]2C[C@H]1CN(Cc1ccccc1)C2)NCCCN1CCCc2ccccc21 | inconclusive: 15.8 µM [inhibitor, single point] |

| Structure (SMILES) | Potency |
| --- | --- |
| Cc1nc2cc(F)ccc2cc1C(=O)NCc1ccc(C(=O)N2CCCC2)cc1 | inactive |
| COC(=O)c1ccccc1NC(=O)N1CC(C)Oc2ccc(C)cc21 (configuration not stated) | inconclusive: 17.8 µM [inhibitor, partial curve, poor fit] |
| CN(C)c1ccc(C(=O)NC2CCN(c3cc(-c4ccc(F)cc4)[nH]n3)C2)cc1 (configuration not stated) | inconclusive: 7.94 µM [inhibitor, partial curve, poor fit] |
| CCc1noc([C@@H]2CC(F)(F)CN2C(=O)c2ccco2)n1 | inactive |
| CCN(CC)C(=O)c1cc(-c2ccc(C)cc2)nc2ccccc12 | inconclusive: 25.1 µM [inhibitor, single point] |
| COC(=O)c1cc(NC(=O)c2cccc3ccccc23)cc(C(=O)OC)c1 | inconclusive: 39.8 µM [inhibitor, single point] |
| COc1ccc(OC)c(CN2CCCCCC2)c1 | inconclusive: 25.1 µM [inhibitor, partial curve, poor fit] |
| CC(C)c1noc(-c2cccn3c(CNC(=O)c4cccc(F)c4)nnc23)n1 | active: 25.1 µM |
| CCC1Oc2ccc(NC(=O)c3ccc([N+](=O)[O-])cc3)cc2CN(Cc2ccccc2)C1=O (configuration not stated) | inactive |
| Cc1ccc(-c2nc3c4ccccc4n(CC(=O)N4CCN(c5ccccc5F)CC4)c(=O)n3n2)cc1 | inconclusive: 17.8 µM [inhibitor, partial curve, poor fit] |
| Cc1ccccc1CNC(=O)c1cnc2sc(N3CCOCC3)nn2c1=O | inconclusive: 5.62 µM [inhibitor, partial curve, poor fit] |
| COc1cc(C(C)=O)ccc1OCc1ccc(C#N)cc1 | inactive |
| CC1CCCCN1c1nc2nnnn2c2sc3c(c12)CCN(Cc1ccccc1)C3 (configuration not stated) | inconclusive: 14.1 µM [inhibitor, partial curve, poor fit] |
| CC(C)(C)OC(=O)N1CC(Nc2ccc(Oc3ccccc3)cc2)C1 | inconclusive: 44.7 µM [inhibitor, partial curve] |
| Cn1nnnc1NCc1ccc(-c2ccccc2)o1 | inconclusive: 39.8 µM [inhibitor, single point] |
| Cc1c(Cl)cccc1NC(=O)Cn1cccc1-c1nc(-c2ccc3c(c2)OCO3)no1 | inconclusive: 20 µM [inhibitor, partial curve] |
| Cc1cccc2nc(-c3ccco3)c(Nc3ccc4c(c3)OCO4)n12 | inconclusive: 28.2 µM [inhibitor, partial curve, poor fit] |
| O=c1cc(N2CCOCC2)oc2c(NCc3cnccn3)nccc12 | active: 35.5 µM |
| CCN(CC)c1cc(C)c2cc(NC(=O)c3cccc(OC)c3)ccc2n1 | inconclusive: 35.5 µM [inhibitor, single point] |
| O=C(NC1CC1)c1ccc2nnc(-c3ccc(C(F)(F)F)cc3)n2c1 | active: 56.2 µM |
| O=C(c1cc(C2CC2)nc2onc(C3CCCN3)c12)N1CCC(F)CC1 (configuration not stated) | inconclusive: 56.2 µM [inhibitor, partial curve] |
